Source: the supplement of paper PMC9446081
The whole screen tested about 39,000 compounds, of which about 220 (0.56%) showed activity. This is one part of the list.
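Further: static incubation at 37 °C against the wild-type strain, values averaged over two biological replicates.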

The compounds below were run on Escherichia coli K-12 BW25113 (assay: relative growth (OD600 normalised to plate interquartile mean) (fraction); higher = less growth inhibition, active = 0.2 or less). Conditions: 50 µM; LB; incubation time: overnight (16-24 h).
In the case of `O=C(CN1CCOCC1)NCC[C@@H]1CC[C@@H](NS(=O)(=O)c2ccc(Cl)cc2)[C@@H](CO)O1`, the relative growth is reported as inactive: 0.986. In the case of `CC(C)C#Cc1ccc2c(c1)O[C@@H](CN(C)C(=O)c1cnccn1)[C@@H](C)CN([C@H](C)CO)S2(=O)=O`, the relative growth is reported as inactive: 1.02. `CO[C@H]1C[C@@H]2CC[C@@H](C)[C@@](O)(O2)C(=O)C(=O)N2CCCC[C@H]2C(=O)O[C@H]([C@H](C)C[C@@H]2CC[C@@H](OC(=O)C(C)(CO)CO)[C@H](OC)C2)CC(=O)[C@H](C)/C=C(\C)[C@@H](O)[C@@H](OC)C(=O)[C@H](C)C[C@H](C)/C=C/C=C/C=C/1C` was tested, and the relative growth was inactive: 0.936. In the case of `O=C(C[C@@H]1CC=CC[C@H](NC(=O)OCC2c3ccccc3-c3ccccc32)C(=O)O[C@H](c2ccccc2)CNC1=O)N[C@@H](CO)Cc1ccccc1`, the relative growth is reported as inactive: 1.02. `Cc1cc(C(=O)Nc2cccc3c2O[C@@H](CN(C)S(=O)(=O)c2cn(C)cn2)[C@@H](C)CN([C@H](C)CO)C3=O)n(C)n1` was tested, and the relative growth was inactive: 0.989. `COc1ccc(CN(C)C[C@H]2OCCCC[C@@H](C)Oc3ccc(NS(=O)(=O)c4c(C)noc4C)cc3C(=O)N([C@H](C)CO)C[C@H]2C)cc1` was tested, and the relative growth was inactive: 1. For `C[C@@H]1CN([C@@H](C)CO)S(=O)(=O)c2ccc(C#Cc3ccc(F)cc3)cc2O[C@@H]1CN(C)S(=O)(=O)c1ccc(F)cc1`, the relative growth was inactive: 1.04. In the case of `O=C1c2ccccc2-c2c(-c3ccccc3)nc3ccccc3c21`, the relative growth is reported as inactive: 1.03. In the case of `C[C@@H]1CN([C@@H](C)CO)C(=O)c2cccc(NC(=O)Nc3cccc4ccccc34)c2O[C@@H]1CN(C)Cc1ccc(C(=O)Nc2ccccc2N)cc1`, the relative growth is reported as inactive: 0.97. With `C[C@H](CO)N1C[C@H](C)[C@H](CN(C)Cc2ccccc2)OCCCC[C@H](C)Oc2ccc(NS(=O)(=O)c3cccs3)cc2C1=O` the relative growth was inactive: 1.01. With `C[C@H](CO)N1C[C@H](C)[C@H](CN(C)Cc2ccccc2C(F)(F)F)OCc2ccccc2-c2c(n(C)c3ccccc23)C1=O` the relative growth was inactive: 1.02. With `COc1cc(Cl)ccc1Oc1ccc(Cl)cc1Cl` the relative growth was inactive: 1.01. In the case of `O=C(Nc1ccc(C(F)(F)F)cc1)Nc1ccc2c(c1)[C@H]1C[C@H](CC(=O)N3CCc4ccccc4C3)O[C@@H](CO)[C@H]1O2`, the relative growth is reported as inactive: 1.05. With `CN1CCN(C(=O)C[C@H]2CC[C@H]3[C@@H](COC[C@@H](O)CN3C(=O)C3CC3)O2)CC1` the relative growth was inactive: 0.979. `CO[C@@H]1CN(C)C(=O)c2ccc(NC(=O)c3ccc(Oc4ccccc4)cc3)cc2OC[C@@H](C)N(C(C)=O)C[C@H]1C` was tested, and the relative growth was inactive: 0.984. For `COc1ccc2c3c(n(c2c1)C)[C@H](CO)N(Cc1cc(cc(c1)OC)OC)C[C@]13CN(C1)S(=O)(=O)c1cn(cn1)C`, the relative growth was inactive: 0.987. In the case of `Cc1noc(C)c1NC(=O)N(C)C[C@H]1Oc2ccc(NS(=O)(=O)c3c(C)noc3C)cc2C(=O)N([C@H](C)CO)C[C@H]1C`, the relative growth is reported as inactive: 0.998. `C[C@H](CO)N1C[C@H](C)[C@H](CN(C)C(=O)Nc2ccc(F)cc2)Oc2ccc(NS(C)(=O)=O)cc2C1=O` was tested, and the relative growth was inactive: 0.935. With `C[C@H]1CN([C@@H](C)CO)C(=O)Cc2cc(NC(=O)Nc3ccc(F)cc3)ccc2O[C@H]1CN(C)S(C)(=O)=O` the relative growth was inactive: 1. With `C[C@@H]1CCCCO[C@@H](CN(C)C(=O)Nc2cccc3ccccc23)[C@H](C)CN([C@@H](C)CO)C(=O)c2cc(NS(C)(=O)=O)ccc2O1` the relative growth was inactive: 1. In the case of `Cc1n[nH]c(=O)nc1NC1CC1`, the relative growth is reported as inactive: 0.918. For `Cc1ccc(S(=O)(=O)N(C)C[C@@H]2Oc3ccc(NS(=O)(=O)c4c(C)noc4C)cc3C(=O)N([C@H](C)CO)C[C@H]2C)cc1`, the relative growth was inactive: 0.86. `Cc1noc(C)c1NC(=O)Nc1ccc2c(c1)C(=O)N([C@H](C)CO)C[C@H](C)[C@@H](CN(C)Cc1ccc(C(F)(F)F)cc1)OCCCC[C@H](C)O2` was tested, and the relative growth was inactive: 0.999. In the case of `C[C@H]1CCCCO[C@H](CN(C)S(C)(=O)=O)[C@@H](C)CN([C@@H](C)CO)C(=O)c2cc(NC(=O)c3ccncc3)ccc2O1`, the relative growth is reported as inactive: 1.01. `C[C@H]1CN([C@@H](C)CO)S(=O)(=O)c2ccc(Br)cc2O[C@@H]1CN(C)Cc1cccc(F)c1` was tested, and the relative growth was inactive: 1.01. `C[C@H]1CN([C@@H](C)CO)C(=O)c2cccc(NS(=O)(=O)c3ccc(F)cc3)c2O[C@@H]1CN(C)S(=O)(=O)c1ccccc1` was tested, and the relative growth was inactive: 0.994. `CCCN(C)C[C@@H]1OCCCC[C@H](C)Oc2ccc(NC(=O)Nc3cccc4ccccc34)cc2C(=O)N([C@H](C)CO)C[C@@H]1C` was tested, and the relative growth was inactive: 0.975. With `COc1ccccc1CCCCN` the relative growth was inactive: 0.878. In the case of `CC(=O)NC1C(NC(=N)N)C=C(C(=O)O)OC1C(O)C(O)CO` (configuration not stated), the relative growth is reported as inactive: 1.09. For `C[C@@H]1CN([C@@H](C)CO)C(=O)c2cccc(NC(=O)c3ccncc3)c2O[C@@H]1CN(C)C(=O)Nc1ccc2c(c1)OCO2`, the relative growth was inactive: 1. In the case of `COCC#Cc1cnc2c(c1)C(=O)N([C@@H](C)CO)C[C@H](C)[C@@H](CN(C)S(=O)(=O)c1ccccc1)O2`, the relative growth is reported as inactive: 0.978. For `CO[C@H]1CN(C)C(=O)c2cc(NS(=O)(=O)CC(F)(F)F)ccc2OC[C@H](C)N(Cc2cccnc2)C[C@@H]1C`, the relative growth was inactive: 0.994. For `CCC1(O)C(=O)OCc2c1cc1n(c2=O)Cc2cc3c(CN(C)C)c(O)ccc3nc2-1.Cl` (configuration not stated), the relative growth was inactive: 1.09. With `C[C@H]1CCCCO[C@@H](CN(C)Cc2ccc3c(c2)OCO3)[C@@H](C)CN([C@@H](C)CO)C(=O)c2cc(NS(=O)(=O)c3cccs3)ccc2O1` the relative growth was inactive: 0.969. `Cc1ccc(S(=O)(=O)N2C[C@@H](O)COC[C@H]3O[C@@H](CC(=O)N[C@H]4CCN(Cc5ccccc5)C4)CC[C@@H]32)cc1` was tested, and the relative growth was inactive: 1.01. `COC(=O)c1c(CC[C@@H](CO)NC(=O)N[C@@H](C)Cn2cc(-c3ccccn3)nn2)oc(C(C)=O)c1C(=O)OC` was tested, and the relative growth was inactive: 1.01. In the case of `C[C@@H]1CN([C@H](C)CO)C(=O)Cc2cc(NC(=O)CCCCCC(=O)Nc3ccccc3N)ccc2O[C@H]1CN(C)Cc1ccc(C(F)(F)F)cc1`, the relative growth is reported as inactive: 1.03.
